Test results taken from PubChem BioAssay AID488969 (Vanderbilt High Throughput Screening Facility, 2010).
In all, about 110,000 compounds were measured (“z-score”: median about -0.1, highest 2% from about 2 on). This is one part of the list.

What follows are compounds tested against Metabotropic glutamate receptor 8 (Rattus norvegicus) (UniProt P70579) (assay: mGluR8 Gi/Go-coupled signaling modulation – cell-based, rat, thallium flux, HTS, primary screen (AID 488969)). Settings: HEK293 rat mGluR8, GIRK (G protein-gated inwardly rectifying potassium channel) thallium flux, FluoZin2; at 10 µM; stronger effect = higher value; submaximal glutamate (EC20) added with thallium.
Chain of UniProt P70579 (P70579 whole entry, looked up): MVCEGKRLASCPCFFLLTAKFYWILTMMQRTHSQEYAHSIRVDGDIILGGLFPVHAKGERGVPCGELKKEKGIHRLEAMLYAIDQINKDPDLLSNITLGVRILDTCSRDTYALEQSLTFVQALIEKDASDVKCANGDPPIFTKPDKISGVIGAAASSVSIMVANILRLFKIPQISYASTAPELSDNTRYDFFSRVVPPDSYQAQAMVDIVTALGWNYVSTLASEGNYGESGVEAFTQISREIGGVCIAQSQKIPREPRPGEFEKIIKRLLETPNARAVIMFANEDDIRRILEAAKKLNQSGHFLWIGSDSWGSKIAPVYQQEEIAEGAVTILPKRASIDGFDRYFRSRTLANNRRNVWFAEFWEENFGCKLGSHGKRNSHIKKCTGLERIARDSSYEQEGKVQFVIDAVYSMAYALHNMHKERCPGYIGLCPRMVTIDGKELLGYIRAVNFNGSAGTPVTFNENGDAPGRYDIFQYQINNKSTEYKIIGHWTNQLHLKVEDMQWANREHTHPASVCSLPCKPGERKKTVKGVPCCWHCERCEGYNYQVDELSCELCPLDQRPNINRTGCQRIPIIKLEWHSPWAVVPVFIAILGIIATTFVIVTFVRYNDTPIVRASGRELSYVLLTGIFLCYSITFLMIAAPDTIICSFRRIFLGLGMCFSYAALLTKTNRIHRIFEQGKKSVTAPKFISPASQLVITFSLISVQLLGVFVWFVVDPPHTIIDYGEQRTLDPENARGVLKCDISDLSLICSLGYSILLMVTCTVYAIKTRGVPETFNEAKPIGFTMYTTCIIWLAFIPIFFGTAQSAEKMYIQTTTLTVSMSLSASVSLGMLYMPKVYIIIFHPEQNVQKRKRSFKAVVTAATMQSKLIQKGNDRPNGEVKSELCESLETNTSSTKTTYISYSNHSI
`Cc1cc2n(n1)C(c1cn(-c3ccccc3)nc1C)Nc1c(C)cccc1-2` (stereo not drawn) gave a z-score of 0.766. Compound `COc1ccc2oc(C(=O)OCC(=O)NCCN3C(=O)CSC3=O)c(C)c2c1` has a z-score of -0.302. Work on `Cc1ccc(NC(=O)CSc2nc3ccccc3c(=O)n2CCCN2CCCCC2)cc1C` yielded a z-score of 0.975. `COc1cc2c(cc1OC)C1=C(C#N)CC/C(=N\S(=O)(=O)c3cccc(Cl)c3)N1CC2` gave a z-score of -0.167. With `COc1ccc(NC(=O)c2ccc(NC(=O)C(C)C)cc2)c([N+](=O)[O-])c1` the z-score was -0.349. In the case of `CC1(C)C2CCC1(CS(=O)(=O)NCc1ccc(C(=O)O)cc1)C(=O)C2` (stereo not drawn), the z-score is reported as -0.0984. Compound `COC(=O)Nc1ncc(CN2CCCCC2)s1` has a z-score of 0.102. Compound `O=C(COc1ccccc1F)NNC(=O)c1ccc(N2CCCCC2)c([N+](=O)[O-])c1` has a z-score of 1.61. Compound `CCOC(=O)C1=C2c3ccc4ccccc4c3CC(C)(C)N2C(=O)C1=O` has a z-score of -0.0446. `CCOC(=O)C1CCN(C(=O)c2cccc(C(=O)N3CCC(C(=O)OCC)CC3)c2)CC1` showed a z-score of 0.148. `Cc1c(Cl)cccc1NC(=S)N1CCOCC1` gave a z-score of -0.256. Work on `CCOC(=S)SCC(=O)N1CCc2cc(OC)ccc2C1C1C(=O)CCCC1=O` (stereo not drawn) yielded a z-score of 0.03. Compound `O=C1c2ccccc2C(=O)N1CCc1csc(-c2cccc(F)c2)n1` has a z-score of 0.0764. `CC(C)(C)c1ccc(OCCNC(=O)Cc2ccc(F)cc2)cc1` gave a z-score of -0.205. Work on `CC(=O)N1N=C(c2ccc3ccccc3c2)OC1(C)C` yielded a z-score of -0.968. `COCCN1C(=O)c2ccccc2C(C(=O)NCc2ccco2)C1c1c[nH]c2ccccc12` (stereo not drawn) showed a z-score of 0.908. `COc1ccccc1N(CC(=O)Nc1ccccc1C)S(C)(=O)=O` showed a z-score of 0.518. For `COC(=O)C1ON2OC(C(=O)OC)C(C(=O)OC)C2C1CC(C)=O` (stereo not drawn), the z-score was -0.367. With `O=C(NCCN1CCOCC1)c1ccc2ccccc2n1` the z-score was -0.0158. `O=C1CCC(=O)N1OCCCCOc1ccccc1` was tested, and the z-score was 0.279. In the case of `COc1ccc([N+](=O)[O-])cc1NC(=O)c1ccc(CN(c2ccc(C)c(C)c2)S(C)(=O)=O)cc1`, the z-score is reported as -0.311. `O=C(NCc1ccco1)c1ccc(COc2ccccc2Cl)cc1` was tested, and the z-score was -0.105. For `NC1=NC(=O)CC(C(=O)NCc2ccccc2)S1` (stereo not drawn), the z-score was 0.208. With `CC(=O)NCCn1c(SCC(=O)NCC2CCCO2)nc2ccccc2c1=O` (stereo not drawn) the z-score was 0.564. Work on `COc1ccc(CNC(=O)C/C(C)=N/NC(=O)Cc2ccc(OC)c(OC)c2)cc1` yielded a z-score of 0.123. Work on `Cc1cccc(OCC(=O)Nc2cc(C)on2)c1` yielded a z-score of -0.0536. With `CCN(CC)c1ccc(/C=N/NC(=S)NCc2ccccc2)cc1` the z-score was -0.191. With `CCOC(=O)N1CCN(C(=O)CS(=O)(=O)c2cn(Cc3ccc(Cl)cc3)c3ccccc23)CC1` the z-score was -0.545. Compound `CCc1cc(-c2n[nH]c(=S)n2-c2cccc(C)c2)cs1` has a z-score of 0.65. With `COc1ccc(CSc2nnc(C)n2N)cc1` the z-score was 0.349. Compound `CCc1ccc(NC(=O)c2cnc3n(c2=O)CCS3)cc1` has a z-score of 2.53. Compound `O=c1cc(COn2nnc3ccc(C(F)(F)F)cc32)nc2sccn12` has a z-score of -0.473. For `COc1ccc(/C=N/n2c(N)nc(-c3ccccc3)c2-c2ccccc2)cc1`, the z-score was -0.377. `Oc1ccc(/C=N/NC(=S)Nc2cccnc2)c(O)c1` showed a z-score of 1.24. `CCCCC(CC)CNC(=O)/C=C/c1ccc(F)cc1` (stereo not drawn) gave a z-score of 1.31. `Cc1ccccc1C(=O)N1CCN(c2ccc([N+](=O)[O-])c(N3CCOCC3)c2)CC1` was tested, and the z-score was -0.213. `Cn1cccc1C(=O)NC(=O)COC(=O)CC12CC3CC(CC(Br)(C3)C1)C2` showed a z-score of -0.458. Work on `CCOc1ccccc1NC(=O)C1CCCN(S(=O)(=O)c2c(C)[nH]c(=O)[nH]c2=O)C1` (stereo not drawn) yielded a z-score of -0.067. With `CCOC(=O)N1CCC(N2Cc3cccc(C(=O)NCc4ccccn4)c3C2=O)CC1` the z-score was -0.271. `CCCCN(CC)S(=O)(=O)N1CCC(C(=O)NCc2ccc(F)cc2)CC1` gave a z-score of -1.05. For `Cc1ccc(-c2nc(CS(=O)CC(=O)NCCN3CCOCC3)c(C)o2)cc1` (stereo not drawn), the z-score was -0.152. `COC(=O)c1cc2c(C)c(C)c3ccccn3c-2c1C(=O)OC` gave a z-score of -0.43. `COc1ccc(NC(=O)c2cc(-c3cc(C)ccc3O)n[nH]2)cc1Cl` showed a z-score of 0.882. In the case of `CC1CCc2nc(NC(=O)CN3CCOCC3)sc2C1` (stereo not drawn), the z-score is reported as -0.313. With `Cc1cc(C)cc(OCC(=O)NNC(=O)c2ccoc2C)c1` the z-score was 0.366. Compound `Cc1ccc(C)n1Cc1ccc(C(=O)O)cc1` has a z-score of 0.41. In the case of `CCOC(=O)C(CC)(CCC(=O)O)c1csc(N)n1` (stereo not drawn), the z-score is reported as -0.255. Compound `CCn1c(SCC(=O)Nc2ccc(Cl)cc2)nc2nc3c(cc2c1=O)CCCC3` has a z-score of 0.452. Work on `CCOC(=O)c1[nH]c(C)c(C(=O)Nc2ccccc2F)c1C` yielded a z-score of -0.186. `CC(C)n1c(-c2ccccc2F)n[nH]c1=S` gave a z-score of 0.0711. With `C=CCn1c(=NC(=O)c2sc3ccccc3c2Cl)sc2cc(S(N)(=O)=O)ccc21` the z-score was -0.381. Compound `COc1ccc(/C=C(/C(=O)c2ccc(Cl)cc2Cl)n2cncn2)cc1` has a z-score of 0.0171. Compound `CN1C(=O)C(=O)N(CC(=O)N2CCc3ccccc32)C1=O` has a z-score of -0.086. `CCCCNC(=O)c1onc(CSc2ccc(F)c(F)c2)c1C(=O)O` was tested, and the z-score was -0.554. For `Cc1ccc(Nc2cc(C)nc3nnnn23)cc1`, the z-score was 0.273. Work on `Cc1ccc(OCC(=O)N2CCN(C(=O)c3cccnc3)CC2)cc1` yielded a z-score of 0.109. For `CC(C)(C)C1=C(C#N)C(c2ccc3c(c2)OCO3)C(C#N)=C(N)O1` (stereo not drawn), the z-score was 0.0361. In the case of `Cc1noc(NS(=O)(=O)c2ccc(NC(=O)CSc3n[nH]c(-c4ccccc4)n3)cc2)c1C`, the z-score is reported as 0.142. `CCOC(=O)N1CCC(n2c(SCC(=O)N3CCC(C)CC3)nc3ccccc3c2=O)CC1` showed a z-score of -0.612. With `CCNc1nc(NCC)n2c(SCC(=O)NCC3CCCCC3)nnc2n1` the z-score was 0.151. For `Cc1cc(C)c(C#N)c(N2CCN(Cc3ccccc3)CC2)n1`, the z-score was -0.124. `Cc1ccc(C)c(-n2c(SCC(N)=O)nnc2-c2ccccn2)c1` was tested, and the z-score was -0.142. `COc1cc(/C=N/NC(=O)C(C)Nc2n[nH]c(=O)[nH]c2=O)ccc1O` (stereo not drawn) was tested, and the z-score was 0.895. With `CN(c1ccc(C(=O)NCCSCc2ccc(Cl)cc2)cc1)S(=O)(=O)c1ccccc1` the z-score was -0.308. `Cc1ccnc(N2CCN(c3cc(C)c(C#N)c4nc5ccccc5n34)CC2)c1` was tested, and the z-score was -0.662. For `Cc1ccc(Nc2c([N+](=O)[O-])ccc3c2=NC2(CCCCC2)N=3)cc1`, the z-score was -0.514. `CC(C)(C)N1C(=O)c2ccc(C(=O)Nc3ccc(-c4nc5ccccc5[nH]4)cc3)cc2C1=O` showed a z-score of -0.0992. In the case of `CCn1cc(C(=O)NCCCN(C)C)c(=O)c2cc(F)c(N3CCN(C)CC3)cc21`, the z-score is reported as -0.393.
